# About 14,000 (4.5%) of roughly 310,000 compounds showed an effect of 50% or more. The effect is printed as a negative number. The list shows a part of the results.
# Biological target: human ether-à-go-go-related gene (hERG) potassium channel (human, UniProt Q12809)
# Assay: primary screen, population patch clamp on CHO cells stably expressing hERG
# 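Further: peak tail current of the secondary pulse compared with the same well before compound.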
# Chain of human ether-à-go-go-related gene (hERG) potassium channel (Q12809 whole entry, looked up): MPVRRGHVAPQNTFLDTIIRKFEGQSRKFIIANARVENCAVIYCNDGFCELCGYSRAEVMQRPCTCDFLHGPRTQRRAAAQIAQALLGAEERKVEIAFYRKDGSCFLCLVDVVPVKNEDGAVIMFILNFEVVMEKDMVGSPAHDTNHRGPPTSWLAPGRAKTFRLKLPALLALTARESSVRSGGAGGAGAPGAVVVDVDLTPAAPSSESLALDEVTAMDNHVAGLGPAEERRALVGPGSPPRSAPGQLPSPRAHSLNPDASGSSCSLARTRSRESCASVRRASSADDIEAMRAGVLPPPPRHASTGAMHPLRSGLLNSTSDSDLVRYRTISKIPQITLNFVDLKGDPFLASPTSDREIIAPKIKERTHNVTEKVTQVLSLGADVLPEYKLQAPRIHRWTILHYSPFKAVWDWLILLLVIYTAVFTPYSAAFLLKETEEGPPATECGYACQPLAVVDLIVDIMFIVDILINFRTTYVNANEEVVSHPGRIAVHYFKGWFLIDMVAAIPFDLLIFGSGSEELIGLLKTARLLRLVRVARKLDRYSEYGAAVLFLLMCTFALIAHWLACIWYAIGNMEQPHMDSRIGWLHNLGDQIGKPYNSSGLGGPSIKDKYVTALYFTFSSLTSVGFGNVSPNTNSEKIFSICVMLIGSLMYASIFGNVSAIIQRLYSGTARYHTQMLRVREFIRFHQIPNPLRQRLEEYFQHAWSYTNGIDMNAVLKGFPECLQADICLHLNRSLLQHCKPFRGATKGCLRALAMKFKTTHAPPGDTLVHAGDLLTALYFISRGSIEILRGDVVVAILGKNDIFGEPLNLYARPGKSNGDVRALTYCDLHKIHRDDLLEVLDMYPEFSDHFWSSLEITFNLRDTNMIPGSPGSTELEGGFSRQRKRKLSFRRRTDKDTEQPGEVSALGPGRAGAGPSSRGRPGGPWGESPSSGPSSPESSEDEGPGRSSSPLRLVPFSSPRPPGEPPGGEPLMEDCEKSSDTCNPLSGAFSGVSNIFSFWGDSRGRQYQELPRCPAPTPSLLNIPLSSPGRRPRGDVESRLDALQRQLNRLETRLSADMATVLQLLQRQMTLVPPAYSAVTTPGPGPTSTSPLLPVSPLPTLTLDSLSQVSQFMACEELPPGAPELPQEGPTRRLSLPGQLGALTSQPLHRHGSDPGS
row,SMILES,"hERG current change (%, negative = inhibition) at 10uM [%]"
1,COc1cc(C(=O)NCC(=O)N/N=C/c2cccs2)cc(OC)c1OC,9.91
2,Cl.O=S(=O)(NCCc1ccccn1)c1cccs1,13.5
3,Cc1cccc(N(C(=O)c2nsc(Cl)c2Cl)C(C(=O)NC2CCCC2)c2ccc(O)cc2)c1C (centres unmarked),-3.84
4,O=C(NNC(=O)c1cnccn1)c1ccc(Cl)c(Cl)c1,19
5,Cn1cc(S(=O)(=O)N2CCCC2)cc1C(=O)NCCc1ccccc1,-2.66
6,CSCCC(=O)N1CCC(CCC(=O)NC2CC2)CC1,3.7
7,CCC(=O)N(Cc1cc2ccc(C)cc2[nH]c1=O)c1ccccc1OC,-4.06
8,CCCCCCC(O)(CCN1CCCCC1)c1ccccc1.Cl (centres unmarked),-70.3
9,Cc1cccc(OCC(=O)NNC(=O)c2ccccc2OCc2c(C)noc2C)c1,-25.4
10,CC(C)C1=NN2C(=N)CC(=O)N=C2S1,13.8
11,O=C(NC(=S)NCc1ccncc1)c1ccccc1,8.59
12,CCOC(=O)c1[nH]c(C)c(C(=O)NC2CCCC2)c1C,-0.781
13,Cc1nc(N2CCOCC2)nc(N2CCCCC2C)c1[N+](=O)[O-] (centres unmarked),-0.506
14,COc1ccc(OC)c(N2C(=O)/C(=C/c3ccco3)C(=O)NC2=S)c1,13
15,NNC(=O)c1ccc2c(c1)S(=O)(=O)NNC2=O,3.14
16,COc1cc(SC)ccc1C(=O)N(Cc1ccccc1)c1ccccc1,9.22
17,Cc1nn(-c2ccc(N3CCCCC3)nn2)c(C)c1CCC(=O)Nc1cc(F)ccc1F,-23.8
18,CCN1CCN(c2cc(=O)n3ccccc3n2)CC1,13.4
19,CN(C)/C=N/c1cc(=O)n(Cc2ccccc2)c(=O)n1C,-4.74
20,O=C(NCCCl)Nc1cc([N+](=O)[O-])ccc1Cl,16.9
21,Br.CN1CCN(c2nc(-c3cccs3)cs2)CC1,10.5
22,CC(C)c1ccc(C2CC(=O)N3CN(C)CSC3=C2C#N)cc1 (centres unmarked),-6.46
23,COc1ccc(C(=O)NCC(=O)OCc2ccc(F)cc2Cl)cc1OC,-1.96
24,CN(NC(=O)c1ccccc1F)c1ncccc1[N+](=O)[O-],11.7
25,O=C(NCc1ccncc1)c1ccc2nc(Cc3ccccc3F)oc2c1,-18.3
26,Cc1ccc(S(=O)(=O)Nc2ccccc2F)cc1C(=O)NNC(=O)c1csc(N2CCOCC2)n1,-8.32

# From article PMC4336329 (PLoS ONE, 2015)
